Experimental data taken from the supplement of paper PMC3334620.
In all, about 33,000 sequences were measured (“E-score (-0.5 to 0.5)”: median about -0.013, highest 2% from about 0.3 on). Some of the results follow.

Molecular target: T1, Msn1 (UniProt P22148)
T1 sequence: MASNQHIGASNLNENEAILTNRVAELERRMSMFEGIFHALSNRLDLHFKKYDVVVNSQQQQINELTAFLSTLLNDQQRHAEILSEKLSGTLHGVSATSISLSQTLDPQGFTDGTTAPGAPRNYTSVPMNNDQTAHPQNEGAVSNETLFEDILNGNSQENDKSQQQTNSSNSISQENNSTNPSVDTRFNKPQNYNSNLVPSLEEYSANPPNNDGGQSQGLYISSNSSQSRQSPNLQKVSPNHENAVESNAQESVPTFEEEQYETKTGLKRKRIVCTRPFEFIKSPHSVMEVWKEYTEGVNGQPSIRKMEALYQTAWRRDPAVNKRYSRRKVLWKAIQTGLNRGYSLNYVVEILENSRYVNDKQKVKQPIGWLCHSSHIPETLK
Experiment: PBM E-score (8-mer binding enrichment) (E-score (-0.5 to 0.5)); higher = stronger / more preferred TF binding; most listed sequences are background and not binding sites
Conditions: protein concentration: 200 nM; construct: GST-full length
In short: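 Bound GST-tagged yeast transcription factors, applied at about 100-200 nM to double-stranded universal all-10-mer Agilent arrays, were detected with fluorescent anti-GST. Scans were normalised with masliner. A modified Wilcoxon-Mann-Whitney statistic, the E-score, was assigned to each ungapped eight-base word pooled with its reverse complement by the Universal PBM Analysis Suite.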

Row | Sequence | PBM E-score
1 | GGGTGACC | -0.145
2 | CCTGGGAG | -0.229
3 | CGAGGATC | -0.0779
4 | AAGGGCTA | -0.166
5 | GACATTCC | 0.456
6 | AGGCGCTA | -0.0523
7 | CACTCATG | -0.0169
8 | ACGCACAG | 0.00267
9 | CTTGCACC | -0.0624
10 | CCGCCCAC | -0.104
11 | CAAAACAA | -0.0625
12 | AGTTCATC | -0.0233
13 | GGCGGGTA | -0.136
14 | AAGGATGT | -0.0435
15 | AGGCTAAA | -0.0101
16 | CACCGTTA | 0.0221
17 | AAGGATCC | -0.132
18 | AATGATTA | 0.186
19 | GGCGACAC | -0.0116
20 | CGTCTCGA | 0.0524
21 | GTCTATGA | 0.212
22 | CCGGCAAG | 0.0593
23 | AAATATTG | 0.181
24 | CACATACG | -0.144
25 | CGTGTACC | 0.164

Row | Sequence | PBM E-score
26 | GGCCATTA | 0.0762
27 | CAGTTGGC | -0.0784
28 | ACGCGATA | -0.0373
29 | ACTATTAA | 0.174
30 | AGAAATGC | 0.112
31 | ATTCTGGA | 0.182
32 | CGAGGAAC | 0.134
33 | AAGCAGCA | -0.0795
34 | ATTAGTCA | 0.0896
35 | CGGTCTGA | 0.0415
36 | AATATCGG | 0.177
37 | GTTGCCAA | -0.0588
38 | AATCGCAG | 0.0174
39 | TCAGACAA | 0.367
40 | GGGCGATA | -0.16
41 | CAGATAAA | 0.00479
42 | AATTTCTA | 0.0498
43 | GTGCCCCA | -0.156
44 | AAACCCGG | 0.0746
45 | AGGTCTTC | -0.196
46 | GATCTTTA | -0.0408
47 | ATTGGATG | 0.0568
48 | GACCACCA | -0.246
49 | AAAATCAT | 0.134
50 | ATGTCCTG | 0.487

Row | Sequence | PBM E-score
51 | AATGGAGT | -0.122
52 | ACCTAGCT | -0.2
53 | CCGTCCCC | -0.328
54 | ATCTCTAG | -0.193
55 | ATACTTTA | 0.0212
56 | CTGCATAC | 0.0422
57 | TAGACAAA | 0.446
58 | AATGTTCG | 0.0628
59 | CCAGGCCA | -0.214
60 | AACTCAAT | 0.137
61 | GCGAATAC | -0.114
62 | AACAATGG | 0.0345
63 | CGGTACCC | -0.236
64 | CCCAGCAG | -0.173
65 | AACTGGCA | 0.0327
66 | CCGCATGC | 0.0628
67 | TTCCCCAA | 0.0823
68 | ACTATACT | 0.118
69 | CAAGTTAA | 0.0484
70 | TATTTTGA | 0.033
71 | GCCATTTA | 0.0227
72 | CAGCATCA | -0.126
73 | ATGGGAAT | -0.188
74 | GCATGCCA | -0.204
75 | TCGTCCAA | 0.0731

Row | Sequence | PBM E-score
76 | CAAAGGCA | 0.0184
77 | CCCATTTC | -0.195
78 | AAATAGCT | -0.0751
79 | GTGCGCTA | -0.12
80 | CTGTTCAA | -0.132
81 | CACGCTTC | -0.188
82 | CTATCATA | -0.0179
83 | AAACGACT | 0.0613
84 | ATGAAATG | 0.0486
85 | GCGTCTTA | -0.0952
86 | GGCTGAAC | 0.0163
87 | CCGACACC | -0.0775
88 | AGGAAGTG | -0.171
89 | GTACGTGA | 0.0697
90 | ATCAACAA | 0.0312
91 | ACGATGCC | -0.294
92 | ATAAGTTG | -0.00629
93 | CTAAAGCC | -0.159
94 | ACGACGTA | 0.109
95 | AACTACCT | -0.0246
96 | ATACGGTG | -0.0953
97 | CCGGTAAC | 0.0836
98 | GCGCAACA | 0.0115
99 | CGTGTTAG | -0.0135
100 | GAAAGGTC | 0.00658

Row | Sequence | PBM E-score
101 | GCATGTTA | 0.0661
102 | ACTTGACG | -0.0849
103 | CTTTGCGA | 0.0688
104 | AAGGCCTA | -0.103
105 | ACCCTCTG | -0.223
106 | GAGAGGCC | -0.205
107 | AATTGTGT | -0.0542
108 | GGTTGATA | -0.0457
109 | CATTTACA | 0.0253
110 | CGCGCTTA | 0.0928
111 | CTAGTTTA | 0.0758
112 | AGGACGAG | 0.00512
113 | AAAGTGGA | 0.0341
114 | ACTCATAT | 0.00588
115 | GCCAAGAC | 0.0238
116 | CTGACCAC | -0.193
117 | ATTCGCCA | -0.039
118 | CTTCGAGC | -0.0695
119 | AAAATCTC | 0.0002
120 | CGTGATGA | -0.113
121 | ATGCTAAT | 0.0422
122 | CATTAAAA | 0.261
123 | GGAGGCCC | -0.356
124 | CGCCGGGC | -0.00571
125 | AAGTCGCT | -0.0636

Row | Sequence | PBM E-score
126 | GAGCTTAC | -0.0923
127 | GGATTCAC | -0.0279
128 | ATTGGCTG | -0.139
129 | AGGCCTCC | -0.0887
130 | CGGCTCAA | 0.0475
131 | TATTGTAA | -0.0211
132 | TCACCTCA | -0.108
133 | AGCCCTAG | 0.0205
134 | GCTAACCA | -0.11
135 | GCGGATAA | 0.0261
136 | AACTCAGT | -0.108
137 | GACCAAAA | 0.193
138 | ATGTACAC | 0.268
139 | CCCGGGGC | -0.265
140 | CCCTGACG | -0.155
141 | CACGCGGA | 0.111
142 | GAACCATC | -0.0276
143 | ATCTATAA | 0.0177
144 | AAAGCATA | -0.00173
145 | CATATTCC | 0.0363
146 | CAGGTACA | 0.29
147 | GGGCTCCA | -0.358
148 | TACACAAA | 0.205
149 | CCGCCAAA | -0.00339
150 | AACTACAC | 0.0736

Row | Sequence | PBM E-score
151 | CCACCCAG | -0.0137
152 | AATAGCTA | -0.0565
153 | CCTGTGAA | 0.0235
154 | GCTCTTAA | 0.103
155 | GGGGTAGA | -0.13
156 | GATAGTCA | -0.0452
157 | GTATGGAA | -0.0401
158 | AAAATAGG | 0.211
159 | CCGGCGCC | 0.0624
160 | GAGATGAA | 0.024
161 | GCTAGAGA | -0.0388
162 | ACGGTTCG | -0.00068
163 | CGACTCTC | -0.106
164 | GAAAGACC | -0.151
165 | CAGGATAC | -0.0293
166 | AATCATAT | 0.165
167 | TAGGGAAA | -0.0483
168 | CTGTGTAA | 0.026
169 | AAGCCTCC | -0.165
170 | GTGACAAC | 0.139
171 | CTTTCATA | 0.115
172 | AAAATGTA | 0.254
173 | ACGTTCGA | -0.0518
174 | AGATGAAC | 0.279
175 | ATGACCAG | 0.102

Row | Sequence | PBM E-score
176 | CTTGATTA | 0.0192
177 | ATAGAGTG | -0.104
178 | CTATATCA | -0.00353
179 | GGTGGACA | 0.325
180 | AAATTCGG | 0.146
181 | CAGGCACG | -0.204
182 | CCCGCTCC | -0.372
183 | AGATTGGC | -0.178
184 | AAGGCCGC | -0.0422
185 | GGTTGCGA | 0.0472
186 | CGGGGTTA | -0.0803
187 | ATAGCAAT | 0.119
188 | AATGTTGC | 0.0459
189 | AAGTTGCG | -0.00973
190 | ACAAGACT | 0.0607
191 | CCCAGGGG | -0.394
192 | GGTAGCCA | -0.0667
193 | AGAGCAGG | -0.00831
194 | TATCGAGA | 0.112
195 | AAACCCAA | 0.0915
196 | ATGAATTC | 0.0224
197 | CAATCACA | 0.112
198 | AACAATCA | 0.139
199 | ATCATAGG | -0.0658
200 | ACCGTAGT | -0.0268

Row | Sequence | PBM E-score
201 | TGTGTAAA | 0.169
202 | ACCCGAAG | -0.0262
203 | CACTTTCC | -0.221
204 | GCGTTAGC | 0.0468
205 | CAAATTAC | 0.0417
206 | GAGACGAC | 0.0177
207 | CTTAGGAA | 0.00599
208 | GGGTGCGA | -0.192
209 | TGTTCAAA | 0.0806
210 | AGGTGTCA | 0.0091
211 | CCGAAAAA | 0.223
212 | AAAAATCA | 0.162
213 | GTTCAGGA | -0.0428
214 | CCATACAA | 0.0759
215 | ACGATAGG | -0.181
216 | AGAGTAAC | -0.0442
217 | GACGTTAA | 0.154
218 | TCAACTAA | 0.0282
219 | AACTTAGG | 0.102
